Test results as given in the supplement of paper PMC11417369.
± gives the standard deviation of the averaged measurements. The list shows a part of the results.

system: PfAP2-G AP2 domain (GST-tagged); assay: gcPBM binding intensity (ln(normalized median fluorescence intensity)); higher = stronger DNA binding
In short: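 Plasmodium falciparum DNA-binding domains carrying a GST tag were expressed in E. coli and applied for 1 h, at about 25 μg on average, to an Agilent 4 × 180k array. The array held primer-extended double-stranded 36-bp intergenic genomic probes together with negative controls, and binding took place in 1× PBS with 1% milk, 0.2 mg/ml BSA, 0.5% salmon testes DNA and 0.03% Triton X-100. An Alexa488 anti-GST antibody detected bound protein, and the array was scanned at 488 nm. Binding intensity is taken as the highest Masliner-normalised natural-log median intensity across replicate spots of either probe orientation.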

Sequence	gcPBM binding intensity (ln)
CGTCCAAAATATCCTTCACACACGAACAGTTTCATT [CACACA_site2729]	10.14 ± 0.078
GTGATTTCTATGAATTGTACTTAAATATAGTTATAT [XGTACX_site231]	11.1 ± 0.68
TTTATATAATATTCTACACACCAACAACAAACATAT [CACACA_site4478]	10.5 ± 0.4
ATATATATATATAATACACACATAAATGAATATATA [CACACA_site316]	10.1 ± 0.48
GCATTGATCAAACATACACACATGGTTAATAAAAAT [CACACA_site2085]	10.3 ± 0.35
GTAGTACATTCTAGAATACACACCTATATATATATA [CACACA_site522]	11.2 ± 0.98
TGAAATGAAAGAACAGCACACATATATATTATATAT [CACACA_site8613]	9.73 ± 0.25
TATATTTTTTAAAAAAGTACAAAGTAATTATTGATT [XGTACX_site2420]	11.3 ± 0.83
ATATGAAAAACTTCATGTACTTATTATAAAATATAA [XGTACX_site2725]	11.2 ± 1
CTTTTTTTTTTGTATTGTACTTTATTTTTACATCGT [XGTACX_site2918]	11.5 ± 0.95
GATTACCTTTTTTTTTTTTTTTTTTTTTTTTTTTTC [CACACA_negctrl_site147]	9.595 ± 0.092
ATAAAAAAAAATATATGTACATATATAAATTGATAT [XGTACX_site7409]	11.3 ± 0.79
ATTCTAATTTTATGAAACGATTATTTTGAATTCATT [XGTACX_negctrl_site578]	9.73 ± 0.085
ATTTTTAATTTTTTCACACATATATTTAAAATAAAA [CACACA_site4799]	9.99 ± 0.21
AAAAAAAAAAAATGTGCACACGCGTACAGACAAAAA [CACACA_site2005]	11.8 ± 0.99
TAAAAAGTACATTATTCATGGCCTATTACATTTTTT [GTGCAC_negctrl_site282]	11.4 ± 0.87
ACACAAAAATAGTTTTTTATATTGTTAACCTTATAT [XGTACX_negctrl_site123]	10.05 ± 0.099
ATAATATATATGAAATGTACATAAATTTAATGCGAC [XGTACX_site5394]	11.1 ± 0.54
ATATTTTACATATTTGCACACATATATTTAAATACA [CACACA_site4628]	10.2 ± 0.26
ATTTATGTTATTGTATGTACACAATATAATGTTATT [XGTACX_site5657]	11.4 ± 0.91
ATTCTACACGCACATACACACATATAAATATAAATA [CACACA_site7582]	10.4 ± 0.21
AAAAAAAAATATATATATATATATATATAATAAAAA [CACACA_negctrl_site639]	9.48 ± 0.27

Sequence	gcPBM binding intensity (ln)
TATGTTTTATATAAGATGCACTTTTGTTATGCTTCA	9.955 ± 0.092
ATGTGCACATGTAGAAGTACTTTTTCTTAAAATACT [XGTACX_site8341]	11.3 ± 0.7
AAATTATTGTAAAATAGTACAGTGAAACATAAAGTT [XGTACX_site589]	11.3 ± 0.8
CAAATACACGGACACACACACACAAAAAAAAAAAAA [CACACA_site6385]	11.4 ± 1.2
AAGAGAAATGGGCACACACACACATATTATAGATAT [CACACA_site6828]	10.6 ± 0.44
TATAAAAAATTCAATACACACCATATATAAATATAT [CACACA_site6060]	9.885 ± 0.035
TGATTCACTATAGTAGTGCATATTATATATATATAT [GTGCAC_site9975]	10.3 ± 0.4
TATAATAATTCATAATGTACTTTTATCAAAAAAGTA [XGTACX_site6868]	11.2 ± 0.79
TAAATACAAGTAAAAAGTACAGAAAAATTATATATA [XGTACX_site1758]	11.4 ± 0.84
TTTATTTGGACATATACACACTTAAATATGTTTATT [CACACA_site6021]	10.5 ± 0.28
TTTATTTTGTTTTCTTGTACATAAATAATTACATAT [XGTACX_site4227]	11 ± 0.66
TTAATTACACAAAAAAGTACTTGATATTGTTTATTA [XGTACX_site3449]	11.1 ± 0.74
ATATAATCAACTGCAAAGGTTTAAAAGGAAAAAATA [CACACA_negctrl_site989]	10 ± 0.13
AATATTTACCAGAAAATAAAAATATGTATATATATA [CACACA_negctrl_site351]	9.94 ± 0.3
AAAAAACGCACTCGTACACACATATTTTCTTTCTAA [CACACA_site3089]	11.4 ± 0.87
ATTTTTATGTCTTTCTATAAATCGAAAATATACATA [CACACA_negctrl_site477]	9.95 ± 0.17
TTCCTTTAACCCTGCACACATACATACATTTATATG [CACACA_site3953]	10.4 ± 0.23
ATATACAACTAAAGAACACACATCATTGTTCATTGG [CACACA_site3681]	9.85 ± 0.15
TTTTTATTCAACAAAAATATCAAACATAATTATAAA [CACACA_negctrl_site616]	9.935 ± 0.064
AATATTTATATTTACACACACATAATACATATATGT [CACACA_site33]	10.2 ± 0.13
TAAAATAGAAATATATGTACATATATATATGTATAT [XGTACX_site4134]	11 ± 0.47
CGATATTCTAAGGATAGTACATAATAAAATAGAGTA [XGTACX_site4224]	11 ± 0.6

Sequence	gcPBM binding intensity (ln)
ATTTATATTTTTTAATGTACATTTATATGTATACAA [XGTACX_site4555]	11 ± 0.66
GTTCTAAAAGTTAATGCATGTTATAAGTTTCCCTCT [TGCATGCA_site94]	9.91 ± 0.028
TATTTCAAAATATGGGTGCAGTTCTTCATGATATAT [GTGCAC_site9658]	10.3 ± 0.26
AGTAATAAAAGTAGAAGTACAATACTTCAAAGATAT [XGTACX_site8562]	11.6 ± 0.93
ATTAAACATAAATATGCACACATATACATATATTCA [CACACA_site8850]	9.97 ± 0.16
ATGTATATATTTACGTGTACATATTCATGTGATATC [XGTACX_site5871]	11.5 ± 1.2
TGCTATTTTTTCCTTTTTTTGTATCACAATCATATA [CACACA_negctrl_site1576]	10.1 ± 0.21
TTATACTTTGGGTGGTGTACTATATTATGCTTATAA [XGTACX_site1106]	11.4 ± 0.92
AGATATATAAATATTACACACTATATATCTATTTAT [CACACA_site6466]	9.72 ± 0.18
ATTTGCCCATTTAATTAACACACAAATGTTTATATT [CACACA_site8145]	10.3 ± 0.2
TTTATTTATTAATACACACACACACCCAGACAAAAT [CACACA_site4292]	10.7 ± 0.6
TATCTTTTTACAATAGTGCATATGTTATCATTAATA [GTGCAC_site9489]	10.07 ± 0.078
ATTATATACATTTTAGTGCATTACATAATAATATAA [GTGCAC_site9836]	10.2 ± 0.24
GTATGCATTATATACACACATACATTTATATATTCT [CACACA_site115]	10 ± 0.014
TTTCTTTTTTGATGCGTGCACATTTGTTTATTTTTC [GTGCAC_site9792]	10.4 ± 0.2
ACTATTTAATATAGGGTGCAACTTTTTCAAGTAAAT [GTGCAC_site9853]	10.4 ± 0.42
ATTCATTTTATTTTTTCACACACACCGATATATATA [CACACA_site9097]	10.2 ± 0.25
ACCCCCATATTCTTTTTACACACTTGAATAAAAAAT [CACACA_site8319]	11.1 ± 0.63
ATTTTTCAATTATGTAGTACATTGATATTTTCATTT [XGTACX_site5369]	11.4 ± 0.89
ATTTTTATTCTTATTACACACCTAAATATAAAATAT [CACACA_site2064]	10.2 ± 0.2
TTTATATTTATATTGGGTACATAAAAAGCTTGAAAT [XGTACX_site8248]	11.4 ± 1.1
TGTGTTCATATATGCACACGCATATATATTATTGTT [CACACA_site3822]	9.94 ± 0.014

Sequence	gcPBM binding intensity (ln)
TGTGTCCATTGAACAGTGCAATAAAAACTTTTACAT	10.6 ± 0.41
ATAAATATGGAGCACACACACATAAACATACATATA [CACACA_site421]	10.4 ± 0.33
AAAAAAAAAAAACACACACACACACCGATACATACA [CACACA_site8849]	10.13 ± 0.099
TTTTTTTTTTTGTGGTGTACCTTTATTTCCTTTTAG [XGTACX_site6934]	11.3 ± 1.1
ATACATATATATATATGTACATATGCACATATATAC [XGTACX_site7209]	11.1 ± 0.62
AAGAAAAAAGGGGACAAGGCATATCTATATATACAT [TGCATGCA_negctrl_site172]	10.7 ± 0.52
TATGTAACACATACTTGTACATATATAATTTTTTTA [XGTACX_site6251]	11 ± 0.59
ATAATATATATATATACGCACACTTATGTACGGATT [CACACA_site2120]	11.2 ± 0.77
TTCTATATAATTCAAACATGCACAGGAAATATTATA [TGCATGCA_site290]	10.19 ± 0.057
AACAATGTTTTCTTGTGTACACATCATTAAAGAAAA [XGTACX_site4726]	11.6 ± 0.88
TTATTTTTACAATTTTAATAATAATACTAAAACAAA [XGTACX_negctrl_site538]	9.89 ± 0.39
ATATATATATCACGCACACACGAATTTTAAATATAT [CACACA_site5691]	10.2 ± 0.29
TCTTTTGCCCAAAAAGGTACACACCACAATTTAAAT [XGTACX_site1482]	11.4 ± 0.88
TATTGTATGGTAGGATATGATGTTATTTGTTATAAT [CACACA_negctrl_site202]	9.95 ± 0.099
TAGTTTTTTATAAAATTATTTATATAAAGGTAAAAA [CACACA_negctrl_site490]	9.99 ± 0.16
ATAAGAAAAGGACACACACACAAAAAAAAAAAAAAA [CACACA_site7351]	11.2 ± 0.98
TGTTCTTATTTTATAAGCATATAATTAATCATAATG [CACACA_negctrl_site1493]	9.775 ± 0.035
TTTATTTATTATTGTTGTACACTTTTTATAAAAAAA [XGTACX_site5114]	11.5 ± 0.87
ATGTATATAATATTATGTACATATATGAAATATTTT [XGTACX_site8168]	11 ± 0.57
ATATATTATATATATTTTAAGTAATTTGCAAAAAAT [GTGCAC_negctrl_site361]	9.81 ± 0.13
ATTTAAAAGAAATAATGTACGAATCATATTTGATAT [XGTACX_site1785]	10.6 ± 0.42
AATATATTATAATATACACACATATATGCTCTTTAA [CACACA_site4131]	9.87 ± 0.028
